# This is one part of the list.
# Tested on: PfHDP1 homeodomain (GST-tagged)
# Test: gcPBM binding intensity (ln(normalized median fluorescence intensity)); higher = stronger DNA binding
# Procedure, shortened: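 An Agilent 4 × 180k array carrying primer-extended double-stranded 36-bp intergenic genomic probes and negative controls received GST-tagged P. falciparum DNA-binding domains expressed in E. coli, about 25 μg on average, for 1 h. The binding buffer contained 1× PBS, 1% milk, 0.2 mg/ml BSA, 0.5% salmon testes DNA and 0.03% Triton X-100. Binding intensity is the top Masliner-normalised natural-log median intensity across replicate spots of either probe orientation, read after Alexa488 anti-GST antibody staining and a 488 nm scan.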
row,Sequence,gcPBM binding intensity (ln)
1,TTAAATAACCTCAAGGATAAGAAAAAATTAAAAATT [CACACA_negctrl_site1336],6.17
2,TTTTAAAAAATATAATAATATAAATATTTTATACGT [TGCATGCA_negctrl_site252],6.03
3,AAAAAAAAAAAACATACACACACACTAATATTTATA [CACACA_site8038],6.77
4,GACTTTTTCATTTTTAGTACACATATATATTTCCCT [XGTACX_site3511],7.56
5,ATATATTTTTAATATGCACACAAGAATACATTCACA [CACACA_site914],9.51
6,TTAAAAAATCACAACACACACACACCCAAAAAAAAA [CACACA_site1445],6.71
7,TTTAAAAAAAAAAAAAATTTTTTTTTTTTTTTTTTA [CACACA_negctrl_site1415],5.68
8,CATATATATATATGAACACACAAAAAGAATATTTCC [CACACA_site1493],6.67
9,TTCTATGCATTTATAGTGCATGTAAAATATAAGATA [GTGCAC_site9466],9.68
10,GTAGAAAGAAAAATTAGTACTTAAATATTATAAAAA [XGTACX_site8458],6.29
11,AATTATATTTAGTATATGCACACTTTATGTTTGTTA [CACACA_site2025],9.36
12,TCTATACCTATTCTTACACACATATGTATTTATATA [CACACA_site4475],7.27
13,CTTTTTACTTAATACACACACACACCCAAAAAAAAA [CACACA_site948],7.37
14,CATCAAAATGAAGCATGTACATAATATAAATAAATA [XGTACX_site4647],6.58
15,AAAAAATACCAAAGGGGTACTTACACATAATACTTA [XGTACX_site2111],6.04
16,ATTGAAGGGAAATATATAATCATATTCAAAATAAAA [CACACA_negctrl_site728],6.3
17,ATTTCTCTATCGTAATGTACAAAAAAAAGGGAAAAG [XGTACX_site1335],6.48
18,CTAATCATAAAATATACACACACGGATACATTAAAT [CACACA_site2685],6.98
19,TTTATACTTTCAAAATGTACATATATATATATATAT [XGTACX_site6241],9.31

row,Sequence,gcPBM binding intensity (ln)
1,TAATATATAATTTTATGTACATAATTATAAACCCAT [XGTACX_site919],6.68
2,GGTATTTTCACATATAGTACACAAAAATAAAATAAA [XGTACX_site2139],6.68
3,AAGGAATAAAATTTAGAAGACAATTTTATTTCAGTA [XGTACX_negctrl_site331],5.61
4,TTGTATAAAATATGTAGTACAATAATATAACATTTT [XGTACX_site8607],6.36
5,TATGTATATTGAGATTGTACTTGTAATATTAAACAT [XGTACX_site3878],6.34
6,AATAATAAAAATATTGTGCACTTGTATATTTATTAT [GTGCAC_site9963],9.36
7,TTTTTTTTTTTTTTTTTTTTTTTCTACCTATTTATT [CACACA_negctrl_site94],6.62
8,AACAAGTTGCATGGTGCACACATGTATATATATCTA [CACACA_site2548],10.2
9,TACAATTTTACTCATAAACACACATATATATGTTAT [CACACA_site9031],6.75
10,AAAATGTATGTAGTCTGTACAAATACTCTATAAATA [XGTACX_site6475],6.54
11,ACCCAGTGTATTCATAGTACACGCTCATATATTATC [XGTACX_site423],6.89
12,AGGTTTATAAAAAAAAAAAAAAAAAAAAAAAAAAAA [GTGCAC_negctrl_site113],6.16
13,CACAAAGGTCTGAAATTTTAGGGGTGCCTGGGACTA [CACACA_negctrl_site681],5.7
14,AATATTTAAAACATATGTACTGAAAAACAATTGGAC [XGTACX_site6360],7.02
15,ATTTTTTTATTTTTGTGTACTTATAAGAATATTAAT [XGTACX_site4850],6.81
16,AATGAATATATTTATTGTACATATATGAATATTGCA [XGTACX_site8689],6.62
17,AAAAAAAAAAAAAAAAGTACAAAAAGGAGAAAGATA [XGTACX_site7862],6.47
18,TATTTTTTATGATTAACACACACACTAATAAAAAAA [CACACA_site9370],7.1
19,TATATATATATATATAGTACGCACACATAGTTGCAA [XGTACX_site5875],9.48

row,Sequence,gcPBM binding intensity (ln)
1,ATTCTTACTAATATCGCACACACATATGTAGACGGG [CACACA_site88],7.4
2,ATTTTAAATTTATCTGTGCACAGTATTATATAAGCA [GTGCAC_site9806],10.8
3,TATGTTCCTTTTTGTTGTACTGAAAAATTATGTTCA [XGTACX_site3981],6.61
4,ATAATATAAATTAATTTACACACTAATAAATATATA [CACACA_site9259],6.76
5,TCATAAAAGATTAAGTGTACATGTGCTACTCTTATA [XGTACX_site6255],6.26
6,ACAAGATAATAGAGAAGTACTAATAAACATACACAA [XGTACX_site6617],6.9
7,AATATAAAATCAAGAAATTAAAAAAAAACAGAAAAC [CACACA_negctrl_site1004],7.07
8,TATATATATATATGTGCACACCAATTGTATGTAATA [CACACA_site3888],10.5
9,AAAACATATTTTAAAAGTACTTGAAAAAAAATTTTC [XGTACX_site3940],6.07
10,AAACCAAAAATAACACGTACAAAAATAAAAAGTATA [XGTACX_site4261],6.9
11,GAAAAAAAAAGTTAAGCACACACATGAATAAATAAT [CACACA_site8179],7.16
12,TTTTGATGCTTTAAATGTACAAGGGTTCTTATGAAA [XGTACX_site831],6.53
13,GAGAGAGAAATATGCACACATAAGGGAAATAAATAA [CACACA_site1153],9.34
14,TGTATATAATTTATATGTACATATATTTTATTTTGT [XGTACX_site1905],6.53
15,AAAAAAAAAAAATAGAAAAAAAAATAAAATAAAAAA [CACACA_negctrl_site562],5.87
16,TGTTAACCACAAAAATAAAATAAAATAAAAATAATA [XGTACX_negctrl_site535],6.39
17,ATTATGCACGGACACACACACACACCCCTAAAAAAT [CACACA_site5426],10.5
18,TTTCCCATAGGAAAAACACACATATATTATAGATAA [CACACA_site7019],6.38

# Source: the supplement of paper PMC11417369
